In all, about 33,000 sequences were measured (“E-score (-0.5 to 0.5)”: median about -0.017, highest 2% from about 0.3 on). Some of the results follow.
Target: T1, Sut1 (UniProt P53032)
T1 sequence: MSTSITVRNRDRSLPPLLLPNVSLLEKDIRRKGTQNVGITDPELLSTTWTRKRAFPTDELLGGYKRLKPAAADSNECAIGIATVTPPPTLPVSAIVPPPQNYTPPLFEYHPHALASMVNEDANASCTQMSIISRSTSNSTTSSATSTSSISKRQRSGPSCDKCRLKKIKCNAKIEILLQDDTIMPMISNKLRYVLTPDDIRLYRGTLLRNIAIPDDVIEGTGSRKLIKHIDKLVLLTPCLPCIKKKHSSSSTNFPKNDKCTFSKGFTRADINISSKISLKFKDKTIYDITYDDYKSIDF
Assay: PBM E-score (8-mer binding enrichment) (E-score (-0.5 to 0.5)); higher = stronger / more preferred TF binding; most listed sequences are background and not binding sites
Conditions: protein concentration: 200 nM; construct: GST-full length
In short: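 Full-length yeast transcription factors or their DNA-binding domains, GST-tagged and expressed with PURExpress, were applied at about 100-200 nM to universal all-10-mer Agilent arrays. These arrays had been made double-stranded by primer extension on fresh or once-stripped slides. Detection used fluorescent anti-GST, normalisation used masliner, and E-scores for ungapped eight-base words pooled with reverse complements came from the Universal PBM Analysis Suite.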

Sequence	PBM E-score
AGTGAGGA	-0.144
AAAAGCCC	0.113
AATACCCT	0.00628
CATACGAG	-0.242
CTTCTATA	0.0327
GCGCAGGA	-0.229
CCTTACCC	-0.153
CATCAATG	-0.00429
CTGTTCAC	-0.169
CACTGACA	-0.0631
AAAGTCTG	-0.0775
CTCCGGTA	0.413
TCAGCTCA	-0.0437
ATGCTTCC	-0.0222
ATTACCCG	-0.00694
CTCCGCTC	0.295
ACACGGCA	-0.0415
ACAGGCAG	-0.101
ACACCTGA	-0.104
AAGGAATC	-0.0249
GTTAGCGA	0.0425
AGCCTCAA	-0.0777
GCCTTCTA	-0.0376
ACCTTATC	0.0449

Sequence	PBM E-score
CCGGTGGC	-0.00565
AAGACGGT	-0.0442
GTTGTGCA	-0.266
CCCACCCG	-0.147
AACTTCGT	0.0951
ACCCAATG	-0.0962
ACGGCATC	-0.0922
ATGTACTC	0.146
GTTTTTGA	0.164
ATGCGGCA	-0.135
AAAGTAGA	0.0665
GATCGCTA	-0.0253
GCACTGGA	-0.187
GCCAATCC	-0.0199
CTCAGGGA	-0.287
CTCGACGA	-0.123
CCTGCTCG	-0.299
CGGCGGAG	0.178
AGAGTGCC	-0.161
GCAATTTA	0.18
CTAAGGGC	-0.288
GTCTAATA	0.0514
TCGGGAAA	0.0513
AAACGCAT	-0.26

Sequence	PBM E-score
TATGATAA	0.233
ATTTGACA	0.122
CCATCCGA	0.0728
ATAATCAA	0.221
CCCGACTA	-0.00983
CGGATAAA	0.341
CGCTCTAC	-0.137
CAGCGCAC	-0.192
ATTGCCGG	0.103
AGGCTCGG	0.154
ACTTTACA	0.115
TATTGGAA	0.089
GTCTGATA	-0.0593
AGAAACCG	-0.0248
GCAGGGGC	-0.322
CTCCAGGA	-0.17
GCCGATAA	0.00363
CGGGCACA	-0.171
AACATGTT	-0.0414
CACGGAGA	0.355
TAAAATCA	0.19
CGACCGCC	-0.257
AAGTTTCG	0.174
AAGTGATA	0.0865

Sequence	PBM E-score
TAATTGGA	0.172
ACCTCAAT	0.0135
CGATCAGA	-0.128
CGAATATA	0.231
AGTACTTG	0.0358
TTCAGAAA	0.157
CAAGCCTC	-0.243
CCAAACCC	-0.0968
ATGTAATG	0.23
AACAGGCC	-0.0938
CGGGGCGC	-0.134
ACGGCGGG	-0.181
GGAGCAAA	0.123
ATAGGATA	0.134
ATGCGCAG	-0.309
GGGTCAAA	-0.116
AGTCCCTA	-0.204
GTTTCCAA	0.0451
CTAACAAC	0.179
ACGTATAG	0.0316
GACTAAAA	0.227
AACTTACC	0.0569
